# According to PubChem BioAssay AID485297 (National Center for Advancing Translational Sciences (NCATS), 2010):
# Hit rate of the full screen: of about 320,000 compounds, about 9,100 (2.8%) were called active. This list was built around the results that the source calls inconclusive (neither active nor inactive); the mix of calls is not that of the screen. The call rests on the fitted dose curve; in most records, active means well fitted activation curve with a large enough effect; inconclusive means small, poorly fitted or top-dose-only effect; inactive means no such curve, though single readings can be large or run the other way. Potencies of inconclusive entries are left out as doubtful fits.
# Assay: qHTS Assay for Rab9 Promoter Activators; further: nearly all actives have a fitted effect of over 60% in size; on activation, negative = inhibition: % of control where 0% means no effect
# Settings: Huh7 Rab9 promoter-luciferase reporter, luminescence, 24 h; series mostly up to 9.22 µM; activation, negative = inhibition: at the top concentration
# In short: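 Luciferase signal after 10 min detection reagent at ambient indicates Rab9 promoter upregulation; stably transfected Huh7 cells were treated 24 h with compound in DMSO at 37 °C, 5% CO2.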
# Potency means the concentration at half of the fitted maximal effect; tags describe the fitted curve by direction and shape.
SMILES,"activation, negative = inhibition",Potency
Cc1nc(CNC(=O)CC2C(=O)NCCN2Cc2cccc(Oc3ccccc3)c2)cs1 (stereo unspecified),inactive: 1.08%,–
O=C(COC(=O)C1CCN(c2ccc(C(F)(F)F)cn2)CC1)c1ccc(Cl)cc1,inactive: 1.99%,–
O=C(/C=C/c1ccccc1)NCCOc1ccccc1,–,"inconclusive [activator, single point]"
CCn1ccc(C(=O)Nc2ccccc2Cl)n1,–,active: 1.58 µM
Cc1ccc(-c2cc(C(=O)NCc3cccnc3)no2)cc1,–,"inconclusive [activator, single point]"
COc1ccc(CCNC(=S)N2CCC(C(=O)c3ccc(F)cc3)CC2)cc1OC,inactive: -24%,–
Cc1cc2nc3c(=O)n(C4CCCCC4)c(=O)[nH]c3nc2cc1N,–,"inconclusive [activator, partial curve]"
O=C(/C=C/c1ccc2c(c1)OCCCO2)c1ccc2ccccc2c1O,–,"inconclusive [activator, single point]"
CC1=NOC(=O)/C1=C\c1ccc(-c2ccc(Br)cc2C(=O)O)o1,inactive: -3.35%,–
C/C(=N\NC(=O)c1ccccc1O)c1ccc(NC(=O)c2ccccc2)cc1,–,"inconclusive [activator, single point]"
CC1CCN(CCc2nc3cc(NC(=O)Nc4ccccc4)ccc3n2C)CC1,–,"inconclusive [activator, partial curve]"
Oc1ccc(/C(Cc2ccc3ccccc3n2)=N\Nc2ccccc2)c(O)c1,–,"inconclusive [activator, single point]"
Nc1nnc(-c2cc3c(ccc4ccccc43)oc2=O)s1,–,"inconclusive [activator, single point]"
CC(C)Oc1cccc(C(=O)Nc2ccc(Br)cc2F)c1,–,active: 1.26 µM
O=C1CN(c2ccccc2)C(=S)N1C(=O)c1ccc(Br)cc1,–,active: 3.16 µM
Cc1ccc(-n2nnc(-c3cc4ccccc4nc3Cl)n2)cc1,–,active: 4.47 µM
CC1CCc2c(sc3ncn(CCO)c(=O)c23)C1 (stereo unspecified),–,active: 2.51 µM
COc1cccc(OC)c1C(=O)NC(=O)Nc1c(C)cccc1C,inactive: -12.4%,–
Cc1ccc(NC(=O)c2ccc(C(C)(C)C)cc2)cc1[N+](=O)[O-],–,"inconclusive [activator, single point]"
COC(=O)c1cccc(C(=O)Nc2ccc(C)cc2)n1,–,"inconclusive [activator, partial curve]"
Clc1ccc(-c2cn3ccccc3n2)cc1,–,active: 0.447 µM

SMILES,"activation, negative = inhibition",Potency
O=C1CC(N2CCOCC2)C(=O)N1c1cc(Cl)cc(Cl)c1 (stereo unspecified),inactive: 8.45%,–
C/C(=N\Nc1nc2ccc(Cl)cc2o1)c1ccccc1,–,"inconclusive [activator, single point]"
Cc1cc(Cl)c2oc(C(=O)N3CCN(c4cccc(C)n4)CC3)c(C)c2c1,–,"inconclusive [activator, partial curve]"
Cc1cc(C)cc(-n2ccnc2SCC(=O)O)c1,–,"inconclusive [activator, single point]"
CCCNC(=O)C1CCN(S(=O)(=O)c2ccc3[nH]c(=O)ccc3c2)CC1,–,"inconclusive [activator, partial curve]"
N#C/C(=C\c1ccc(OC(=O)c2ccc(Cl)s2)cc1)c1nc2ccccc2[nH]1,–,"inconclusive [activator, single point]"
O=C(c1ccccc1)c1cc(-c2ccccc2)on1,–,active: 0.631 µM
COc1ccc(-c2cc(COc3ccccc3)on2)cc1,–,active: 3.98 µM
CCC(C)N1C(=O)CN(C2CCCCCC2)C(=O)C1c1ccccc1F (stereo unspecified),inactive: 0.89%,–
CN(C)c1ccc(N=Cc2nc(-c3ccccc3)oc2OC(=O)c2cccc(Cl)c2)cc1,–,active: 4.47 µM
O=C(Nc1cc(C(F)(F)F)ccc1Cl)c1cc2nc3c(c(C(F)(F)F)n2n1)CCCC3,–,active: 1.78 µM
CC(=O)Nc1ccc(-c2ccc(NC(C)=O)c(O)c2)cc1O,–,"inconclusive [activator, partial curve]"
Cc1c(C(=O)NCc2ccccn2)oc2ccccc12,–,"inconclusive [activator, partial curve]"
O=[N+]([O-])c1ccc(S(=O)(=O)Nc2nnc(C(F)(F)F)s2)cc1,inactive: -0.403%,–
Nc1c(C(=O)c2ccc(Cl)cc2)oc2ccccc12,–,"inconclusive [activator, single point]"
C=CCn1c2ccccc2c(=O)c2cc(C#CC[C@@H](C)O)ccc21,–,"inconclusive [activator, single point]"
Cc1ccc(-c2noc(COC(=O)c3ccco3)n2)cc1,inactive: 4.04%,–
CC(Sc1n[nH]c(=O)n1Cc1ccccc1)C(=O)NCC1CCCO1 (stereo unspecified),inactive: -3.16%,–
FC(F)(F)c1ccc(CSc2ccccn2)cc1,inactive: 6.54%,–
O=C(CN1C(=O)CCC1=O)Nc1nc(-c2ccccn2)cs1,inactive: -6.43%,–
Cc1ccc(-n2[nH]c(C)c(C=NCc3ccncc3)c2=O)cc1,–,"inconclusive [activator, single point]"

SMILES,"activation, negative = inhibition",Potency
Cc1cc2c(cc1C)CN(c1ccccc1)C2,–,active: 1 µM
O=C1C=C(c2cc3ccccc3s2)C[C@@H](c2ccc3c(c2)OCO3)C1,inactive: -7.03%,–
Cc1cc(C(=O)N/N=C2\CCCc3ccccc32)c(C)o1,–,"inconclusive [activator, partial curve]"
O=C(Cc1ccccc1[N+](=O)[O-])NCc1ccc(Cl)cc1Cl,–,active: 3.55 µM
O=C(COc1ccc2ccc(=O)oc2c1)NCCCN1CCCC1=O,inactive: 7.79%,–
COc1ccc(N=Nc2n(C)c3ccccc3[n+]2C)cc1,–,"inconclusive [activator, partial curve]"
CCCCNC(=S)NNC(=O)c1csc(C)c1C,–,"inconclusive [activator, partial curve]"
COc1ccc(C(=O)CC2SC(N)=NC2=O)cc1 (stereo unspecified),inactive: -5.53%,–
C[C@@H](CO)NC(=O)c1ccc2c3n(nc2c1)-c1ccccc1CO3,–,"inconclusive [activator, full curve, poor fit]"
Cc1noc(C)c1C(=O)OCC(=O)c1cc(C)n(Cc2ccccc2Cl)c1C,–,"inconclusive [activator, partial curve]"
Nc1nc(SCc2ccccc2)ns1,–,"inconclusive [activator, single point]"
COc1cc(OC)c2c(-c3ccccc3)cc(=O)oc2c1C(CCN1CCCC1)c1ccc2c(c1)OCO2 (stereo unspecified),inactive: -6.36%,–
COc1cc(OC)cc(C(=O)Nc2ccc3nc4n(c(=O)c3c2)CCCC4)c1,–,"inconclusive [activator, partial curve]"
O=C(CSc1ccccc1C(=O)O)c1ccccc1,–,"inconclusive [activator, partial curve]"
Cc1nc(SCc2ccccc2)nc2c1CCC2,–,"inconclusive [activator, partial curve]"
CCOC(=O)Cn1nc(/C=C/c2ccc(C)cc2)ccc1=O,inactive: 0.541%,–
CC(=O)c1cccc(N/C=C\C(=O)c2ccc(C)cc2)c1,–,active: 0.794 µM
COc1ccc(N2Cc3ccccc3C2=NC(=O)c2cncc(Br)c2)cc1,–,"inconclusive [activator, single point]"
COc1ccc(C2C=C(c3ccccc3)Nc3nnnn32)cc1 (stereo unspecified),–,"inconclusive [activator, partial curve]"
CCc1ccc(Nc2nc(C)cc(C)n2)cc1,–,active: 5.01 µM
CCOc1ccc(N(CC(=O)NCc2ccccc2)S(=O)(=O)c2ccc(C)cc2)cc1,–,"inconclusive [activator, single point]"

SMILES,"activation, negative = inhibition",Potency
COc1ccccc1NC(=S)N(Cc1ccco1)Cc1cc2cccc(C)c2[nH]c1=O,inactive: -4.22%,–
CC(NC(N)=O)C(=O)Nc1ccc(Cl)c(S(=O)(=O)Nc2ccc(Cl)cc2)c1 (stereo unspecified),inactive: -2.37%,–
COc1ccc(C(=O)O)c(OC)n1,inactive: -27.3%,–
O=C(Cc1ccccc1F)Nc1nc(-c2ccc(F)cc2)cs1,–,"inconclusive [activator, single point]"
COc1ccc(C)cc1S(=O)(=O)N1CCCC(C(=O)NC2CC2)C1 (stereo unspecified),inactive: -5.73%,–
COCCn1c(C)cc(C(=O)CSc2ccc3ccccc3n2)c1C,–,"inconclusive [activator, single point]"
CC(=O)c1cc(F)ccc1OCC(=O)N1CCCc2ccccc21,inactive: 6.52%,–
COC(=O)c1c(-c2ccc(F)cc2)csc1NC(=O)C1CCCO1 (stereo unspecified),inactive: 23%,–
COc1ccc(-c2csc(NC(=O)c3ccco3)n2)cc1,–,active: 2.24 µM
COC(=O)c1sc(NC(=S)NC(=O)c2ccccc2Cl)nc1C,–,"inconclusive [activator, partial curve]"
Oc1cc(O)cc(/C=C/c2ccc(O)c(O)c2)c1,–,inactive
CC1CCCN(C(=O)C2CCN(S(=O)(=O)c3cccs3)CC2)C1 (stereo unspecified),inactive: -0.187%,–
CCNc1nc(NCC)nc(N/N=C/c2ccc(OC)cc2)n1,inactive: -1.96%,–
O=C(Cc1ccccc1[N+](=O)[O-])NCc1ccc(Cl)cc1,–,"inconclusive [activator, partial curve]"
Cc1nc(N=Nc2ccc(O)cc2)n[nH]1,–,"inconclusive [activator, partial curve, poor fit]"
COc1ccc(-c2ccc(-c3noc(C)n3)c(OC)n2)cc1,–,"inconclusive [activator, single point]"
O=C(NC(=S)Nc1ccccc1)c1ccc(-c2ccccc2)cc1,–,"inconclusive [activator, partial curve]"
Cn1c(COc2ccccc2Br)nc2ccccc21,–,"inconclusive [activator, single point]"
